Experimental findings from PubChem BioAssay AID488969 (Vanderbilt High Throughput Screening Facility, 2010) are described below.

Whole data set: some 110,000 compounds, median “z-score” near -0.1, cut for the highest 2% near 2. The list shows a part of the results.

The assay has as its target Metabotropic glutamate receptor 8 (Rattus norvegicus) (UniProt P70579). The assay can be described thus: mGluR8 Gi/Go-coupled signaling modulation – cell-based, rat, thallium flux, HTS, primary screen (AID 488969). Conditions: HEK293 rat mGluR8, GIRK (G protein-gated inwardly rectifying potassium channel) thallium flux, FluoZin2; at 10 µM; stronger effect = higher value; submaximal glutamate (EC20) added with thallium.
UniProt P70579, sequence (P70579 whole entry, looked up): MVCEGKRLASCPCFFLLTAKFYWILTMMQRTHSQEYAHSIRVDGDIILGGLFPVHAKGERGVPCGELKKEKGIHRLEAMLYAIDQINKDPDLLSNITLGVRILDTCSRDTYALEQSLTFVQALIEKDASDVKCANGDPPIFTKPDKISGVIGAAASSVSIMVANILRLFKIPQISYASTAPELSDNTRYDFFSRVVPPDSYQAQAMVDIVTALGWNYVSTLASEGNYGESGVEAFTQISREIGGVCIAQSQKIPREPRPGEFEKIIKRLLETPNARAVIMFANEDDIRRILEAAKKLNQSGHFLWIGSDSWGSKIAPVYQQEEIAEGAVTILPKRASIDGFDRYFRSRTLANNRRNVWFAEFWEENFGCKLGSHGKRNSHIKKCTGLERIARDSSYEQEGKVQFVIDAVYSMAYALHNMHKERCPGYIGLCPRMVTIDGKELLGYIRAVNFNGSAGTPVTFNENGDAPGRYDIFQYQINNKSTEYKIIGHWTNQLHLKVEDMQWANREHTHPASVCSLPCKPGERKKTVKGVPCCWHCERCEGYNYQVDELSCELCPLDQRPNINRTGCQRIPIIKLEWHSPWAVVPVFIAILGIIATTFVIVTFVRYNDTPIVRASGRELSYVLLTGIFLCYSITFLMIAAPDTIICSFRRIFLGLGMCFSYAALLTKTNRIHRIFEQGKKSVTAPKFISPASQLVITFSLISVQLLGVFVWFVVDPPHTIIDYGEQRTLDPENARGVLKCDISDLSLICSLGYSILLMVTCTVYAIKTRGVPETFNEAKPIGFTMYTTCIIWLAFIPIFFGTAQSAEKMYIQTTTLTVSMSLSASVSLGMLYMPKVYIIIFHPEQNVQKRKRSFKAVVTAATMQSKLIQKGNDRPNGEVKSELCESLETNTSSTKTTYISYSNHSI
In turn, `COc1ccc(NC(=O)C23CCC(C2)C(C)(C)C3=O)cc1` (centres undefined) gave a z-score of -0.0724. As for `Cc1ccc(NC2c3ccccc3C(=O)N2CCN2CCOCC2)cc1` (centres undefined), the figure is 0.0479; as for `O=C(CSCc1ccc(Cl)cc1)NN=C1CCCCCC1`, 0.757. Consider `CCCCOc1ccccc1C1C(C(N)=O)=C(C)Nc2nnnn21` (centres undefined), for which the z-score was -2.99. On to `CC(=O)N(C)C1=C(N2CCOCC2)C(=O)c2ccccc2C1=O`, for which the z-score is -0.168.

Molecule `O=C(NCc1cccs1)N[C@@H](Cc1ccccc1)C(=O)O` had a z-score of 0.257. As to `CCCCNC(=O)COC(=O)c1c2c(nc3ccccc13)/C(=C/c1cccs1)CC2`, the z-score was -0.279. Molecule `CCOC(=O)c1c(C)c(C(=O)N2CCCCCC2)c(C)n1C` returned a z-score of -0.268. The figure for `O=C(CCCCCN1C(=O)CCC1=O)Nc1ccc2c(c1)OCO2` is -0.12. Turning to `COc1ccc(S(=O)(=O)N(C)Cc2cccs2)cc1Br`, the z-score was -0.126.

Molecule `O=C(O)c1cccc(Cn2c(Cl)c(/C=N/NC(=O)c3ccccc3Cl)sc2=O)c1` registered a z-score of 0.217. The figure for `O=C(CC(C(=O)O)C1CCCO1)Nc1cccc(C(F)(F)F)c1` (centres undefined) is 0.396.

`Cc1cccc(OCc2nnc(SCC(=O)N3CCN(C(=O)c4ccco4)CC3)n2C)c1C` yielded a z-score of 0.31. As to `Cc1ccc(N(C(=O)CCC(=O)Nc2cc(C)on2)C(C(=O)NC2CCCC2)c2cccs2)cc1` (centres undefined), the z-score was -1.5. As for `COc1ccc2c(c1)c(=O)oc1cc(OCC(=O)N3CCC(C)CC3)ccc12`, the figure is -0.128. The figure for `C=CCN1CCN(Cc2cnc(Cl)s2)CC1` is 0.00711. `CCCOc1ccc(/C(O)=C2/C(=O)C(=O)N(CCCn3ccnc3)C2c2ccco2)cc1` (centres undefined) showed a z-score of -0.0422. The figure for `O=C(CN1CCN(c2ccccc2)CC1)Nc1c(C(=O)C2CC2)oc2ccccc12` is -0.421; for `COc1cc(NC(=O)C2C3C=CC(C3)C2C(=O)O)c(OC)cc1Cl` (centres undefined) it is 0.0185; for `COCCCNC(=O)c1ccccc1NS(=O)(=O)c1ccc(C)cc1` it is -0.247. As for `C/C(=N\OCC(=O)Nc1c(C)cc(C)cc1C)c1ccc2c(c1)OCCO2`, the figure is -0.217. The figure for `S=c1nc(-c2ccccc2)n(Cc2ccco2)c2c1CCCC2` is 2.16; for `Cc1ccc(C)c(NC(=S)N2CCN(CCO)CC2)c1` it is 0.0185. `CN(C)S(=O)(=O)Oc1ccsc1C(=O)Nc1cccc(Cl)c1`: the z-score is -0.299.

Take `C=CCn1c(SCC(=O)N2N=C(c3ccco3)CC2c2ccco2)nnc1-c1ccncc1` (centres undefined): the z-score was found to be 0.206. In turn, `O=c1c2c(nc3nc(Cc4ccccc4)[nH]n13)CCC2` gave a z-score of -0.984.

In turn, `Nc1c(-c2ccccc2)c(CSc2nc3ccccc3[nH]2)nn1-c1ccc(Cl)cc1` yielded a z-score of -0.471. As for `NC(=O)C1CCN(C(=O)CCCCCn2c(=O)[nH]c3ccsc3c2=O)CC1`, the figure is -0.0678; as for `O=C(NCc1ccccc1)c1ccc(COCC(F)(F)F)o1`, 0.193; as for `Cn1nc(C(=O)NC2=NCCS2)ccc1=O`, -0.148. As for `COc1ccc(S(=O)(=O)N(C)CC(=O)N2CCOCC2)cc1`, the figure is 0.616; as for `CCn1c(=O)c2ccccc2n2c(SCC(=O)N3CCc4ccccc4C3)nnc12`, 1.51.

In turn, `O=C1c2ccccc2-c2nc3ncnn3c(-c3ccccc3Cl)c21` gave a z-score of -0.172. The molecule `CC1CCN(CCCNC(=O)CCCNC(=O)Cn2cnc3sc4c(c3c2=O)CCCC4)CC1` registered a z-score of 0.228. As for `CCn1c(SCC(=O)N/N=C/C=C\c2ccco2)nc2ccccc21`, the figure is -0.415.

As for `CC(C)(C)n1nnnc1C(c1cccnc1)N1CCN(c2ccccc2F)CC1` (centres undefined), the z-score was determined as 1.05. As for `COC(=O)CC/C(O)=C1/C(=N)CC(C)(C)CC1=O`, the figure is -0.39. As for `O=C(CN1CCN(c2ccccc2)CC1)c1ccc2cc[nH]c2c1`, the figure is 0.196; as for `CCc1ccccc1NC(=O)CC(c1ccc(OC)cc1)n1cccc1` (centres undefined), 0.00269; as for `c1ccc(-c2cc(N3CCCCCC3)n[nH]2)cc1`, -0.216. As to `COc1ccc(NC(=O)Nc2nnc(-c3ccccc3SCc3ccccc3)s2)cc1`, the z-score is -0.158.

For `CS(=O)(=O)N1CCN(C(=O)c2cc(-c3ccccc3)nc3ccccc23)CC1`, the z-score was -0.102.

Molecule `COc1ccc(/C=C2\CCc3ccccc3C2=O)cc1OC` came in with a z-score of 1.63. For `CCOc1ccccc1NC(=O)C(CC(C)C)NC(=O)C1CCCCC1` (centres undefined), the z-score is -0.18. With `CCOc1ccc(NC(=O)COC(=O)CCCc2c[nH]c3ccccc23)cc1`, the z-score is -0.489. For `COc1cc(C(=O)OC(C)CN2CCCC2)cc(OC)c1OC` (centres undefined), the z-score is -0.00418. Regarding `Cc1ccc(C(C(=O)NC2CCCCC2)N(Cc2ccccc2)C(=O)Cc2c[nH]c3ccccc23)o1` (centres undefined), the z-score is -0.243. Molecule `CCOC(=O)c1nnn(CC(=O)N2N=C(c3ccc(Cl)cc3)CC2c2ccccc2)c1C(=O)OCC` (centres undefined) showed a z-score of 1.16. The figure for `COc1ccccc1/C=C(/C(=O)OCC(=O)Nc1cc(C)ccc1C)c1ccccc1` is -0.105; for `O=C(NC1CCCCC1)[C@H](O)[C@@H](O)C(=O)NC1CCCCC1` it is -0.394. Regarding `COc1ccnc(Oc2ccc(C)cc2C)c1C#N`, the z-score was -0.085.

As to `Cc1cccc(NC(=O)C2(c3cccs3)CCOCC2)n1`, the z-score is -0.352. Consider `COc1ccc(-c2noc(CCCc3ccccc3)n2)cc1OC`, for which the z-score was -0.00278.

`Cc1ccc2nc(SCc3cn4c(C)cc(C)nc4n3)[nH]c2c1` displayed a z-score of -0.419. In turn, `COc1cc(/C=C(\NC(=O)c2ccccc2)C(=O)NCC(=O)O)c([N+](=O)[O-])cc1OC` came in with a z-score of 0.051. The figure for `CCOc1ccc(C(=O)OCc2nnc(-c3cccs3)o2)cc1OC` is -1.3; for `O=C(CCNC(=O)Cn1ccc2ccccc2c1=O)NCCCN1CCN(c2ccccc2F)CC1` it is 0.0122.

In turn, `Clc1cccc(-c2nc3nc4ccccc4nc3n2Cc2ccccc2)c1` returned a z-score of -0.0197.

As for `CN1CCN(Cc2cccc(Oc3ccccc3)c2)CC1`, the z-score was determined as 0.0807. As for `O=C(CCN1C(=O)c2ccccc2C1=O)C1=NN[C@@H]2C(=O)N(c3cccc(F)c3)C(=O)[C@H]12`, the figure is -0.278.

Molecule `COc1ccc(-c2nnc(SCc3cccc(C#N)c3)o2)cc1` yielded a z-score of -0.227. In turn, `COc1ccc(Cl)cc1NC(=O)C(=O)N/N=C/c1cc(C)n(-c2ccc(C)cc2)c1C` returned a z-score of 0.183.

In turn, `Cc1ccccc1Nc1nc(-c2sc(NC(=O)c3ccc([N+](=O)[O-])cc3)nc2C)cs1` had a z-score of 0.0251. The molecule `O=C(Cc1c[nH]c2ccccc12)N/N=C/c1ccc(F)cc1` registered a z-score of -0.0857. With `O=C(NCCN1CCOCC1)c1cc2ccccc2[nH]1`, the z-score was -0.746. In turn, `O=C(CNC(=O)Cc1ccccc1)N=Nc1c(O)n(Cc2ccc3c(c2)OCO3)c2ccccc12` displayed a z-score of -0.518. The figure for `COc1ccc2c(c1)c(=O)oc1cc3oc(C)c(C)c3cc12` is -0.412; for `CC1CCCN(c2nc3nonc3nc2N2CCCC(C)C2)C1` (centres undefined) it is -0.3; for `COc1ccc(Nc2cnn(-c3nc4ccccc4s3)c(=O)c2Cl)cc1` it is -0.201. Molecule `O=C(Nc1ccc2oc(-c3ccccc3)nc2c1)c1cccnc1` gave a z-score of -0.943. As for `COc1cc(NC(=O)CN2C(=O)NC(C)(CC(C)C)C2=O)cc(OC)c1` (centres undefined), the figure is -0.681; as for `O=C(Nc1ccccc1)N(C1=NCCCCS1)c1cccc2ccccc12`, -0.463.

With `COc1cc2c(cc1OC)/C(=C/C(=O)N1CCOCC1)NC(C)(C)C2`, the z-score is -0.195. The figure for `Cc1ccc(S(=O)(=O)Nc2cccc3cccnc23)cc1` is -0.731.

In the case of `Cc1nc2nc(SCC(=O)N3CCOCC3)nn2c(C)c1Cc1ccccc1`, the z-score is 0.476. The molecule `CCCc1cc(N2CCCC(C(=O)Nc3c(OC)cccc3OC)C2)n2ncnc2n1` (centres undefined) registered a z-score of -0.175. On to `COc1ccc(S(=O)(=O)N2CCCCC2)cc1NC(=S)Nc1cccc(Cl)c1C`, for which the z-score was -0.267.

In the case of `Cn1ncc(Br)c1C(=O)Nc1ccc(F)cc1F`, the z-score turned out to be 0.238. As for `CCOc1ccc(Nc2nc(Cl)nc(NCCO)n2)cc1`, the figure is 0.122; as for `COc1cc(/C=N/NC(=O)c2ccc([N+](=O)[O-])cc2Cl)cc(Br)c1O`, 0.0738. The figure for `CNc1nc(CCN2C(=O)c3ccccc3C2=O)cs1` is -0.0681; for `Cc1ccc(F)c(NC(=O)C2CCCCC2C(=O)O)c1` (centres undefined) it is 1.59; for `CCC(=O)Nc1ccc(S(=O)(=O)Nc2cc(C)on2)cc1` it is 0.42. As for `O=C(NCC1CCCO1)c1c(O)c2cccc3c2n(c1=O)CCC3` (centres undefined), the figure is -0.736. Turning to `COc1ccc(N=C2SC(CC(=O)Nc3ccccc3F)C(=O)N2Cc2ccco2)cc1` (centres undefined), the z-score was -0.259.

In turn, `Cc1cc(C(=O)OC(C)C(=O)Nc2nc(-c3ccccc3)cs2)c(C)o1` (centres undefined) came in with a z-score of 0.00978.

The molecule `Cc1sc2c(c1C)c(=O)n(-c1ccc(F)cc1)c(=O)n2CC(=O)NCc1ccco1` returned a z-score of -0.238.

Regarding `COc1ccc(C(=O)N2CC(=O)N(CCc3ccccc3)C(=O)C2)cc1OC`, the z-score was -0.521. `Fc1ccc(CSc2nncn2NCc2ccccc2)cc1` yielded a z-score of 0.189. For `O=C(Cn1ccc([N+](=O)[O-])n1)NCc1ccco1`, the z-score is -0.0548. As for `CC(=O)Nc1ccc(N=Cc2nc(-c3ccc(C)cc3)oc2O)cc1`, the figure is -0.604; as for `O=C(Nc1ccc2c(c1)nc1n2CCSC1)c1ccccc1`, -0.15; as for `COC(=O)C(C(=O)OC)C(C(=O)OC)C(C(=O)OC)C(=O)OC`, 0.288.

`Cn1nc(-c2ccc(Cl)cc2)nc2c(=O)n(C)c(=O)nc1-2` yielded a z-score of -0.0841. As for `C(=C\c1nnc2c3ccccc3ncn12)/c1ccccc1`, the figure is -0.229.

The molecule `O=C(NC1CCCc2ccccc21)c1ccc(Cl)nc1` (centres undefined) returned a z-score of -0.221. `O=C(C1=C(O)C(=O)N(CCN2CCOCC2)C1c1ccccn1)c1cccs1` (centres undefined) registered a z-score of 0.522. With `O=C(Nc1cccnc1N1CCOCC1)c1ccco1`, the z-score is -0.607. As for `Cc1ccc(NC(=O)c2ccc(OC(=O)COc3ccc(Cl)cc3C)cc2)cc1`, the figure is -0.069; as for `COc1ccc(CCNC(=O)c2nnn(-c3cc(C)cc(C)c3)c2N)cc1OC`, -0.00195. The figure for `Cc1ccc(S(=O)(=O)N2CCN(C(=O)c3ccccc3)CC2)cc1` is 0.422. Turning to `COc1ccccc1Oc1ccc(N/C=C2/CCCC2=O)cc1`, the z-score is -0.122. The figure for `Cc1c(NC2=NC(C)(C)Cc3ccccc32)c(=O)n(-c2ccccc2)n1C` is -0.508; for `Cc1ccc(NC(=O)CN2C(=O)S/C(=C\c3cccn3C)C2=O)cc1` it is -0.234. `CCOc1ccc(-c2cn3ccccc3n2)cc1[N+](=O)[O-]`: the z-score was 0.461. `CCCCOc1ccc(-c2nnn(CC(=O)NCCc3c[nH]c4ccccc34)n2)cc1` gave a z-score of -0.168. The figure for `O=C1C2CC=C(Cl)CC2C(=O)N1CNc1ccccn1` (centres undefined) is -0.363.

As for `Cc1ccccc1Nc1nc(N)nc(CSc2ccccc2)n1`, the z-score was -0.372.

For the molecule `O=C1NC(=S)N/C1=C/c1ccc(Oc2ccc(C(F)(F)F)cc2[N+](=O)[O-])c(Cl)c1`, the z-score is -0.0317.
